The record followed here is PubChem BioAssay AID1346428 (National Center for Advancing Translational Sciences (NCATS), 2018).

Where “and” joins values, the source holds several entries; their conditions need not be identical. Equal values may be shown once. Screen size: about 48,000 compounds; about 1,200 (2.5%) were called active. Not shown: some 2% with an inconclusive outcome.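 How the source made its calls: active means activation of at least 60% and not above a set upper limit (about 1 call in 100 departs from these limits); inconclusive means activation of 40% to 60%, or above that upper limit; inactive means activation under 40%.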 Some of the results follow.

UniProt O75388, sequence (O75388 whole entry, looked up, the tested form may be a part): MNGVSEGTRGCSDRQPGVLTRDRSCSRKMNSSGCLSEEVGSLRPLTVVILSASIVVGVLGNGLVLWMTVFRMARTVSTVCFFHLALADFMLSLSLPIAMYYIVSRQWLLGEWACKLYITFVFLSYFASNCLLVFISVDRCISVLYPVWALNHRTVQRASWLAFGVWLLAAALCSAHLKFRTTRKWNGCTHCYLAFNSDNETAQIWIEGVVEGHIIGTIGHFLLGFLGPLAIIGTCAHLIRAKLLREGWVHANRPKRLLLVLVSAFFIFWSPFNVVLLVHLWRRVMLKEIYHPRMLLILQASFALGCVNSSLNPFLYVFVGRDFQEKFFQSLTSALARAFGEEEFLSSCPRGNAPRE

The assay concerns the target Probable G-protein coupled receptor 32 (Homo sapiens) (UniProt O75388). The assay is described as follows: qHTS for Agonists of Human Resolvin D1 Receptor DRV1. Further: 0% is about no effect. The conditions noted are these: CHO-K1 GPR32 beta-arrestin PathHunter luminescence, 90 min; at 76.9 µM; active compounds read high; zero percent set by DMSO-only wells. In outline:
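GPR32 activation in stably transfected CHO-K1 cells, detected as beta-arrestin recruitment by enzyme-fragment complementation. Compound exposure: 90 min, 37 °C.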
In general terms: qHTS replaces the single test concentration by a dilution series.
In the case of `Cc1cccc(NC(=O)N2CCN(C)c3ncccc32)c1C`, the activation was inactive: 0.206%. As to `COc1ccc(OC)c(CNC(=O)CN(c2ccc(C)cc2)S(=O)(=O)N(C)C)c1`, the activation is inactive: -20.3%. With `C=Cc1ccc(Cn2c(=O)cc(C)c3c(C)nn(-c4ccccc4)c32)cc1`, the activation is inactive: -6.23%. For `COc1cc(OC)cc(-c2cc3nc(C)c(CCC(=O)Nc4ccc(C(C)=O)cc4)c(C)n3n2)c1`, the activation is inactive: -3.23%. For `O=C(NC1(C(F)(F)F)C(=O)Nc2c1c(=O)[nH]c(=O)n2-c1ccccc1)c1ccccc1Cl` (stereo not drawn), the activation is inactive: -19.4%. `COCc1cc(C)nc2sc3c(c12)NC(c1ccc(O)c(OC)c1)N(c1ccccc1)C3=O` (stereo not drawn): the activation was inactive: -21.2%. In the case of `COc1ccc(OCC(=O)N(Cc2cccs2)c2ccc(OC)cc2)cc1`, the activation was inactive: -15.3%. In the case of `CSCCC(NS(=O)(=O)c1ccc2c(c1)oc(=O)n2C)C(=O)Nc1ccc(Cl)cc1` (stereo not drawn), the activation was inactive: 11.8%.

In the case of `CC(C)c1ccc(CNc2nc(-c3ccco3)nn2C(=O)c2ccc([N+](=O)[O-])cc2)cc1`, the activation was inactive: -3.84%.

On to `COc1ccc(NC(=O)Cn2c(=O)n(Cc3ccc4c(c3)OCO4)c(=O)c3ccc(C(=O)NC4CCCCC4)cc32)cc1`, for which the activation was inactive: -1.71%. Regarding `COc1cc2c(C(=O)N3CCN(c4cccc(C(F)(F)F)c4)CC3)cn(CC(C)C)c(=O)c2cc1OC`, the activation is inactive: -29.5%. With `COc1ccc2c(c1)cc1c(=O)n(CC(=O)NCCCOC(C)C)nc(C)n12`, the activation was inactive: -4.17%. The value for `CCn1c(C)c(C)c2cc(C(=O)NCc3ccc(OC(C)C)cc3)ccc21` was inactive: -15.3%. Take `CCOCCCNc1nc2ccccc2n2c(CC)nnc12`: the activation was inactive: -3.58%. With `COc1ccc(-c2noc(N3CCC(C(=O)N4CCN(c5ccccc5F)CC4)CC3)n2)cc1`, the activation is inactive: -23.6%. Take `COc1ccc(-c2cn3nc(N4CCCC(C(=O)Nc5ccccc5OC)C4)sc3n2)cc1` (stereo not drawn): the activation is inactive: -2.27%. Consider `COc1ccc(Cl)cc1S(=O)(=O)Nc1cccc(-c2ccc(N3CCCC3)nn2)c1`, for which the activation is inactive: 37.8%. With `COc1ccccc1NC(=O)CSc1nc(-c2ccc(C)cc2)nc2c1Cc1c(CO)cnc(C)c1O2`, the activation was inactive: -0.108%. `Cc1nn2c(=O)cc(COC(=O)c3ccc(NC(=O)c4cccc(Br)c4)cc3)nc2s1`: the activation was inactive: 37.4%. The value for `Cc1ccc(Cl)cc1NC(=O)CN1C(=O)CSc2ccc(S(=O)(=O)N3CCCC3)cc21` was inactive: -21.8%; that for `Cc1cn([C@@H]2O[C@H](CO)[C@@H](O)[C@H]2F)c(=O)[nH]c1=O` was inactive: -10.8%; that for `COC(=O)c1ccccc1NC(=O)Cn1c(=O)n(CCC(=O)NCc2ccccc2OC)c(=O)c2ccccc21` was inactive: -7.66%.

In the case of `Cc1cccc(NC(=O)CCN2CCN(c3ccccc3F)CC2)c1`, the activation is inactive: -6.55%. With `CCOC(=O)c1c(S(=O)(=O)NCC(=O)N2CCN(c3cc(C)ccc3C)CC2)c(C)n(C)c1C`, the activation is inactive: -1.65%.

`c1ccc2occc2c1`: the activation was inactive: -15.3%. The value for `COc1ccccc1N1CCN(C(=O)C(CCSC)NS(=O)(=O)c2ccc3c(c2)oc(=O)n3C)CC1` (stereo not drawn) was inactive: -10.6%; that for `CC(C)Oc1ccc(CNC(=O)CCCN2C(=O)CCn3nc(-c4cccn4C)cc32)cc1` was inactive: -6.04%; that for `COc1ccc(CC(=O)Nc2sc3c(c2C(=O)Nc2cccc(Cl)c2)CCCCC3)cc1` was inactive: 16.7%. With `CCC(=O)N1CCc2cc(S(=O)(=O)CCC(=O)Nc3ccc(OC(F)(F)F)cc3)ccc21`, the activation is active: 65.4%. For `COc1ccc2nc3oc(C(=O)N4CCN(c5cc(C)ccc5C)CC4)cc3cc2c1`, the activation was inactive: -5.17%. For the molecule `O=C1NCCN1CCN1CCC(c2cn(-c3ccc(F)cc3)c3ccc(Cl)cc23)CC1`, the activation is inactive: 41.4%. As to `Cc1nn(-c2ccccc2)c2c1N(CCCC(=O)NCc1ccc(N(C)C)cc1)C(=O)CS2`, the activation was inactive: -12.7%. For the molecule `O=C(c1ccco1)n1nc(-c2ccccc2)nc1NCc1ccc(Cl)cc1`, the activation is inactive: -1.12%. With `CCC(=O)N1c2ccccc2CC1C(=O)N1CCN(c2cccc(Cl)c2)CC1` (stereo not drawn), the activation was inactive: -13.8%. In the case of `CCc1ccc(NCc2cc3ccc(OC)cc3n(CC(=O)Nc3ccc(F)cc3F)c2=O)cc1`, the activation is inactive: -35.9%.

Turning to `COc1cccc(CNCCSc2nnnn2C)c1OCc1ccccc1Cl`, the activation is inactive: 30.9%.

As for `Cc1nn2c(=O)cc(COC(=O)c3ccco3)nc2s1`, the activation was inactive: -8.97%. On to `O=C(Nc1ccc(F)cc1)N1CCN(c2ccccc2F)CC1`, for which the activation was inactive: 19.1%. Then `COc1cccc(CNS(=O)(=O)c2ccc3c(c2)CCN3C(=O)C2CCC2)c1`, with inactive: 34.5%; and `CCOC(=O)c1ccc(-n2c(CCC(=O)O)ccc2-c2ccc(Br)cc2)cc1`, with inactive: -10.9%; and `COc1ccc(Cn2c(SCC(=O)NCc3ccc(Cl)cc3)nc3ccsc3c2=O)cc1`, with inactive: -0.867%. Then `COc1ccc(N2C(=O)CS(=O)(=O)C23C(=O)N(Cc2cccc(F)c2)c2ccccc23)cc1OC` (stereo not drawn), with inactive: -9.9%. Turning to `Cc1ccc(C)c(S(=O)(=O)c2nnn3c2nc(Nc2ccc(C)c(C)c2)c2sccc23)c1`, the activation is inactive: -4.42%. Regarding `O=C(CC(c1cccs1)N1Cc2ccccc2C1=O)Nc1ccc(F)c(F)c1` (stereo not drawn), the activation was inactive: -4.85%. `Cc1cc(=O)[nH]c2nnc(SCc3ccc(F)cc3)n12`: the activation is inactive: 31.3%. The value for `Cc1cc(Cl)ccc1OCC(=O)Nc1c(Cl)ccc2nsnc12` was inactive: 7.31%. Then `CC(C)(C)CC(C)(C)c1ccc(O)c(-n2nc3ccccc3n2)c1`, with inactive: 35.7%; and `O=C(Nc1c(C(=O)N2CCN(c3ccccc3)CC2)oc2ccccc12)c1ccc(Br)o1`, with inactive: -31.3%. `O=C(NCc1cccs1)c1ccc(Cn2c(SCc3ccccc3)nc3cccnc32)cc1`: the activation was inactive: -2.77%. `CCOC(=O)c1cccc(NC(=O)NCc2cccn2Cc2ccccc2)c1`: the activation was inactive: -5.81%. Turning to `Cc1ccc2occ(CC(=O)N(Cc3ccccc3Cl)C3CCS(=O)(=O)C3)c2c1` (stereo not drawn), the activation was inactive: -13.8%. Then `CC1CCC(Nc2nc3c(-c4ccc(Cl)cc4)nnn3c3ccccc23)CC1` (stereo not drawn), with inactive: 18.7%; and `Cc1ccc(Cn2cc(CCC(=O)NC3CCC(C)CC3)c3ccccc32)cc1` (stereo not drawn), with inactive: -37.4%; and `CC(=O)c1ccc(NC(=O)CN2C(=O)CCc3ccccc32)cc1`, with inactive: -3.54%.

`CC(=O)/C=C/C=C1/C2CCC(C2)C1(C)C` (stereo not drawn): the activation is inactive: -13.9%. With `O=C(CSc1oc(-c2ccccc2)nc1S(=O)(=O)c1ccc(Cl)cc1)Nc1ccc(F)cc1`, the activation was inactive: -3.08%.

Regarding `CC(=O)Nc1ccc(/C=C/c2nc(-c3ccccc3O)n(-c3ccccc3)n2)cc1`, the activation is inactive: 47.1%.

Regarding `COc1ccccc1CNS(=O)(=O)c1ccc2c(c1)NC(=O)C(C)C(=O)N2` (stereo not drawn), the activation was inactive: -16.8%. On to `Cn1c(=O)oc2cc(S(=O)(=O)N3CCCC(C(=O)NCCc4ccc(Cl)cc4)C3)ccc21` (stereo not drawn), for which the activation was inactive: 10%. In the case of `O=C(Cn1cc(SCc2ccc(C(F)(F)F)cc2)c2ccccc21)N1CCOCC1`, the activation was inactive: -9.9%. On to `Cc1cccc(-c2nc(C)c(CCNC(=O)C(=O)Nc3cccc(Cl)c3C)s2)c1`, for which the activation is inactive: -24.6%. Regarding `COC(=O)c1ccccc1NC(=O)Cn1c(CCC(=O)O)ccc1-c1cccs1`, the activation is inactive: -11.2%. `Cc1ccc(-c2nc(-c3cc4c([nH]c3=O)CC(C)(C)CC4=O)sc2C)cc1`: the activation was inactive: 46.5%. With `CCCCSc1nc(-c2ccc(OC)cc2)ccc1C#N`, the activation is inactive: -8.26%.

Consider `O=C(NCc1ccccc1)c1cc2sccc2n1Cc1ccc(Cl)cc1`, for which the activation is inactive: 38.5%. Regarding `COC(=O)CSc1ncc2c(n1)-c1ccccc1N(Cc1ccccc1C)S2(=O)=O`, the activation is inactive: -9.31%. Turning to `CCOc1ccc(N(C)C(=O)CS(=O)(=O)c2cccc3nsnc23)cc1`, the activation was inactive: -7.08%.

Regarding `O=C1CCC(N2C(=O)c3ccccc3C2=O)C(=O)N1` (stereo not drawn), the activation was inactive: -26.5% and inactive: -2.82%. As to `CCC1CN(C(=O)N2CCC(C(=O)NCc3ccc(N(C)C)cc3)CC2)c2ccccc2O1` (stereo not drawn), the activation is inactive: -22.5%.

`CCCOc1cccc(C(=O)Nc2cccc(-c3nc4ncccc4o3)c2C)c1`: the activation is inactive: 22.1%.

Regarding `CCOC(=O)c1ccc(N2CCN(c3cc(C)ccc3C)CC2)c(NC(=O)Nc2ccc(CC)cc2)c1`, the activation is inactive: -3.56%.

With `COc1cccc(Nc2ccc3cc(S(=O)(=O)N4CCC(C)CC4)ccc3n2)c1`, the activation was inactive: -10.6%.

As for `CCCCC(=O)NCc1nc2cccnc2n1Cc1ccc(OC)cc1`, the activation was inactive: -18.8%. Regarding `CC(=O)c1cccc(NC(=O)C2CCN(C(=O)c3cnn(-c4ccccc4)c3-n3cccc3)CC2)c1`, the activation was inactive: -10.5%. The value for `Cc1c(C(=O)NCc2ccccc2Cl)sc2nc3n(c(=O)c12)CCCCC3` was inactive: 1.99%; that for `Cc1cn2c(=O)cc(COC(=O)c3cccc(NC(=O)c4ccc(C(C)(C)C)cc4)c3)nc2s1` was inactive: -8.34%; that for `CCn1cc2nc(SCC(=O)Nc3ccc(OC)c(OC)c3)n(Cc3ccc(Cl)cc3)c(=O)c2n1` was inactive: -2.75%. `Cc1nn2c(=O)cc(COC(=O)c3cccc(NC(=O)CCc4ccccc4)c3)nc2s1`: the activation is inactive: -14.4%. With `Cc1ccccc1-c1nc2scc(CCNS(=O)(=O)c3ccccc3)n2n1`, the activation was active: 75.3%. Consider `COc1ccc(-c2cc(-c3ccc(F)cc3)nc3c2COc2ccc(F)cc2-3)cc1`, for which the activation is inactive: -7.64%. With `CCOc1ccc(-n2c(/C=C/c3cccc(F)c3)nc3cc(OC)c(OC)cc3c2=O)cc1`, the activation was inactive: 30.1%. Regarding `COc1ccc(-c2oc3ncn4nc(-c5ccccc5O)nc4c3c2-c2ccc(OC)cc2)cc1`, the activation was inactive: -12.3%. `O=C1CN(C(=O)COc2ccc(Cl)cc2)C(c2ccccc2)c2cc(Br)ccc2N1` (stereo not drawn): the activation was inactive: -20.6%.
